Data taken from paper PMC4336329 (PLoS ONE, 2015).
Hit rate of the full screen: of about 310,000 compounds, about 2,200 (0.71%) showed an effect of 50% or more. The effect is printed as a negative number. Some of the results follow.

biological target: human ether-à-go-go-related gene (hERG) potassium channel (human, UniProt Q12809); test: primary screen, population patch clamp on CHO cells stably expressing hERG
Sequence (Q12809 whole entry, looked up): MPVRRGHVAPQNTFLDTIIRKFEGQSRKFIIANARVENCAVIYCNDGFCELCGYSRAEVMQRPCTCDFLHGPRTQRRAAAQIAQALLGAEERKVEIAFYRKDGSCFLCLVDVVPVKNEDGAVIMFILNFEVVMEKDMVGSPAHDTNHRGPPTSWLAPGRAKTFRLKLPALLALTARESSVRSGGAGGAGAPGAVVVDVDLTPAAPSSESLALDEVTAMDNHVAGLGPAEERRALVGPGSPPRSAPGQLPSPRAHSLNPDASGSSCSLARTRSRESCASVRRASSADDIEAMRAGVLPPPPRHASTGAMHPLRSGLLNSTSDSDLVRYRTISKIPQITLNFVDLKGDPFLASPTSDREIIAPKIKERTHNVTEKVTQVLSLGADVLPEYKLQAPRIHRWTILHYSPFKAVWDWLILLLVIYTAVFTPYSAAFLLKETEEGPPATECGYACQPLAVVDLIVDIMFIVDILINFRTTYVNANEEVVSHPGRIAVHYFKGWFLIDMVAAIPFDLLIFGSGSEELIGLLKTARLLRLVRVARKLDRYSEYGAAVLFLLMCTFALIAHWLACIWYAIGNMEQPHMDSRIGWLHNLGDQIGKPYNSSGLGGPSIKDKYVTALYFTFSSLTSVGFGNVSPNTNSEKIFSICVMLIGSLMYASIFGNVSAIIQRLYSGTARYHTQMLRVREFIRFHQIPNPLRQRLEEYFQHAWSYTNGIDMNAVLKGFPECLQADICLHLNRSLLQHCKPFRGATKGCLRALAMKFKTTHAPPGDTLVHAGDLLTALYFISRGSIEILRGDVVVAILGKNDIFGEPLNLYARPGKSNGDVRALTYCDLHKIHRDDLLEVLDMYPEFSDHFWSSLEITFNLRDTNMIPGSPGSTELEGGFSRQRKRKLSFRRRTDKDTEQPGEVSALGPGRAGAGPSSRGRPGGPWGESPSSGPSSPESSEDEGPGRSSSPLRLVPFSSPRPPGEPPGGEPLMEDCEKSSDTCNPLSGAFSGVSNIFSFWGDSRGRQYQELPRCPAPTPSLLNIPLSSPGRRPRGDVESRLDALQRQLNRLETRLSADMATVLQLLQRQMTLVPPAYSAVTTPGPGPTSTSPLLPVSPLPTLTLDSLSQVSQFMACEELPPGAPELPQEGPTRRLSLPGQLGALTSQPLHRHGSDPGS

SMILES	hERG current change (%, negative = inhibition) at 1uM [%]
CC1CN(C(=O)CSc2nc(-c3ccc(F)cc3)cs2)CC(C)O1 (stereo not shown)	5.61
CCC(C)(C)NC(=O)CN(C(=O)c1snc(C(N)=O)c1N)c1ccc(OC)c(OC)c1	8.41
CC(C)CCn1c(=O)[nH]c2ccccc21	13.8
COc1ccc(NC(=O)/C(C#N)=C/c2ccc(-c3ccc(Cl)c(C(=O)O)c3)o2)cc1	18.3
COc1ccc(C(=O)NNC(=O)CCC(=O)Nc2ccc(C)cc2C)cc1	14.8
O=C(Nc1ccccc1F)c1c[nH]c(=O)[nH]c1=O	10.2
CC(C)c1nc(Cl)c(C#N)c2c1CSC(C)(C)C2	12.6
CC(O)[C@H]1CNCCN1CCc1cc(C(F)(F)F)cc(C(F)(F)F)c1 (stereo partly shown)	11.6
CCC12CN3CCN(CC(C3)/C1=N\NC(=O)c1ccc(C(C)(C)C)cc1)C2	2.87
O=C1N=C(N2CCOCC2)S/C1=C/c1cccs1	-0.965
CCN(CC)CCCNC(=O)c1nn(-c2ccc(OC)cc2OC)c(=O)c2ccccc12	8.97
O=C(CCc1nnc(-c2ccc3c(c2)OCO3)o1)N(Cc1ccncc1)CC1CCCO1 (stereo not shown)	11.7
COc1ccc(C(C(=O)NC2CCCCC2)N(C(=O)c2ccccn2)c2cccnc2)cc1 (stereo not shown)	14.1
CCCc1cc(=O)[nH]c(SCC(=O)Nc2c(C)cccc2C)n1	8.21
COc1ccc(N2CCN(Cc3nc4scc(-c5ccccc5)c4c(=O)[nH]3)CC2)cc1	17.6
COP(=O)(OC)c1nc(-c2cccc3ccccc23)oc1N1CCOCC1	13
Cc1ccccc1C1NC(=O)c2ccccc2O1 (stereo not shown)	15.1
COc1ccc(-c2cc(-c3n[nH]c(=S)n3-c3ccccc3Cl)[nH]n2)cc1	19
COc1ccccc1C(=O)COC(=O)CNS(=O)(=O)c1ccc(NC(C)=O)cc1	6.56
O=C(OCn1ncc(Cl)c(Cl)c1=O)c1ccc(F)cc1	-4.02
COc1ccc(C=NCCC2(O)CC(C)N(C)CC2C)cc1 (stereo not shown)	13.9
Cc1cccc(OCC(=O)NNC(=O)C2CCCCC2C(=O)O)c1 (stereo not shown)	11.6

SMILES	hERG current change (%, negative = inhibition) at 1uM [%]
Cn1c(=O)c2c(nc(NC3CCCCC3)n2CC(O)COc2ccccc2)n(C)c1=O (stereo not shown)	8.42
COCCNC(=O)CN(Cc1ccc(Cl)cc1)S(C)(=O)=O	-2.56
CCOC(=O)c1cnn2c(C)cc(-c3ccccc3)nc12	2.21
COc1ccc2c(Cl)c(C(=O)NN3CCN(C)CC3)sc2c1	3.55
COc1ccc(OC)c(/C(C)=N\NC(=O)c2cc3cc(Cl)ccc3n2C)c1	17.5
NC(=O)CSCc1c(Cl)cccc1Cl	8.89
S=c1[nH]nc(CCc2ccccc2)n1-c1ccc(Cl)cc1	11.7
COc1cccc(C2/C(=C(\O)c3ccc4c(c3)OCCO4)C(=O)C(=O)N2CCN(C)C)c1 (stereo not shown)	9.07
CN(C)CC(C)(C)CNS(=O)(=O)c1ccc(Cl)c(Cl)c1	11.7
CC1CCN(CCC(=O)Nc2ccc3c(c2)CCC3)CC1	-1.28
COC1=CC=C2[C@H]3Cc4ccc(OC)c5c4[C@@]2(CCN3C)[C@H]1O5.Cl	0.915
CCN(CC)S(=O)(=O)c1cccc(C(=O)N[C@H](C(=O)NCc2ccc(Cl)cc2)C(C)C)c1	10.4
CSc1ncc(CN2CCc3c([nH]c4ccccc34)C2c2cccc(C)n2)cn1 (stereo not shown)	5.15
CC1CN(S(=O)(=O)c2csc(C(=O)Nc3ccccc3)c2)CC(C)O1 (stereo not shown)	14.6
Cc1c(CCC(=O)NCCCN2CCCC2=O)c(=O)oc2cc(O)ccc12	10.3
COc1cc(SC)ccc1C(=O)N1CCN(c2ccccc2OC)CC1	8.56
Cc1ccc(-n2nc3c(=O)n(C(C)C(=O)NC4CC4)nc(C)c3c2C)cc1 (stereo not shown)	12.6
CC(c1ccncn1)N(C)C(=O)c1ccc2oc(Cc3ccccc3)nc2c1 (stereo not shown)	9.8
COc1ccc2c(c1OC)CN(C)CCc1cc3c(cc1C(=O)C2)OCO3	-84
CN1CCN(C(=O)COc2ccc(S(=O)(=O)NC3CCCCC3)cc2Cl)CC1	15.3
COC(=O)c1cn(NC(=O)Cc2ccccc2Br)c(=O)c2ccccc12	5.95
COc1cc(CNc2nc3ccccc3[nH]2)cc(OC)c1OC.Cl	13.1

SMILES	hERG current change (%, negative = inhibition) at 1uM [%]
CCCC(=O)NCc1cc(-c2nn(C)c(=O)c3ccccc23)ccc1OC	-1.69
O=C(c1ccc(S(=O)(=O)N2CCCCC2)cc1)N1CCN(c2ccccc2F)CC1	13.8
COc1cc(C(=O)N2CCN(c3ncnc4sc(C)c(C)c34)CC2)cc(OC)c1OC	-18.2
COc1ccc(C(=O)Nc2cccc3c2C(=O)NC3=O)cc1S(=O)(=O)N1CCOCC1	-3.41
Cc1onc(-c2ccccc2)c1-c1nnc(-c2ccccc2C(F)(F)F)o1	9.8
Cc1c(NC(=O)c2ccc(N(Cc3ccccc3)S(C)(=O)=O)cc2)c(=O)n(-c2ccccc2)n1C	15.1
CCn1cc(Cl)c(C(=O)NNC(=O)CCn2ccc([N+](=O)[O-])n2)n1	14.8
COC(=O)/C(=C/c1ccco1)NC(=O)c1ccccc1	4.04
Cn1c(SCC(=O)NCc2ccc(F)cc2)nc2c([nH]c3ccccc32)c1=O	8.91
OCCN1CCN(c2cc(C(F)(F)F)nc3ccccc23)CC1	9.3
CCNC(=S)N(Cc1ccc2c(c1)OCO2)C1CC(=O)N(c2ccc(OC)cc2)C1=O (stereo not shown)	5.31
Cc1ccc(-n2nc3ccc(N)cc3n2)c(C)c1	20.9
Cc1cc(C)c2sc(NC(=O)C3CC3)nc2c1	4.81
COc1cc(C)c(C(C)C)cc1S(=O)(=O)N1CCN(C)CC1	11.7
O=C(Cc1c(O)c2ccccc2oc1=O)c1ccc(C(F)(F)F)cc1	7.79
COc1ccc2cc(C(C)C(=O)N3CCC(C)CC3)ccc2c1 (stereo not shown)	-21.8
COc1ccc(Cl)cc1NC(=O)CC(C)c1ccccc1 (stereo not shown)	10.1
CC(=O)N(C1=NCCCS1)c1ccc(Cl)cc1	15.2
CNC(=O)C1CCC(=O)N1Cc1ccc(C)cc1 (stereo not shown)	9.4
O=C(NCC12CC3CC(CC(C3)C1)C2)c1nc2ncccn2n1	-15.9
COc1ccccc1NS(=O)(=O)c1cccc(NC(=O)c2ccc3ccccc3n2)c1	16
O=C(COC(=O)c1ccccc1NCCO)NCCc1ccccc1	11.7

SMILES	hERG current change (%, negative = inhibition) at 1uM [%]
Cc1[nH]c2ccc(C(=O)O)cc2c1C	10.2
N#CC(C#N)=Cc1ccc(NC(=O)c2ccc(Br)cc2)cc1	9.08
O=C(c1ccc(C23CC4CC(CC(C4)C2)C3)o1)N1CCOCC1	-18.5
CC1CCc2c(C(=O)Nc3ccccn3)csc2C1 (stereo not shown)	6.82
Cc1ccnc(NS(=O)(=O)c2cc([N+](=O)[O-])ccc2C)c1	8.83
S=C(NCc1ccccc1)NCc1ccc(CNC(=S)NCc2ccccc2)cc1	13.1
COc1cccc(NC(=O)CSCC(=O)O)c1	5.38
O=C(CCNS(=O)(=O)c1ccc(Cl)cc1)NCc1ccccn1	-0.0436
Cc1nc2sc(C(c3cccs3)N3CCOCC3)c(O)n2n1 (stereo not shown)	-6.84
O=C1CCCc2c1cc(C(=O)Nc1ccc(Br)cn1)c(=O)n2-c1ccccc1	12
Cc1ccc(-c2nnc(OCC3CCCO3)c3ccccc23)cc1 (stereo not shown)	2.05
COc1ccc(C(c2c(O)nc[nH]c2=O)c2c(O)nc[nH]c2=O)cc1	18.6
Nc1nc(=S)[nH]c2c1C1(CCCCC1)Cc1ccccc1-2	4.85
Cc1noc(C)c1S(=O)(=O)N1CCCC(C(=O)NCCc2ccccc2)C1 (stereo not shown)	6.36
COc1ccc2cc(C3(C)NC(=O)N(CC(=O)Nc4c(C)n(C)n(-c5ccccc5)c4=O)C3=O)ccc2c1 (stereo not shown)	0.395
COc1cccc(C(C(=O)NC(C)(C)C)N(CC(C)C)C(=O)CCC(=O)Nc2cc(C)on2)c1OC (stereo not shown)	7.63
CC1(C)Cc2c(c(-c3ccccc3)nc(N3CCOCC3)c2C(N)=O)CO1	1.03
Cc1ccc(N/C(=N/S(=O)(=O)c2cccs2)c2ccccc2)c(C)c1	17.8
CC(C)CC(N)c1cn([C@@H](CCC(=O)O)C(=O)N2CCNCC2)nn1.Cl (stereo partly shown)	17
CCN(CC)S(=O)(=O)c1cnccc1N1CCN(c2cccc(Cl)c2)CC1	4.99
COc1cc(C(=O)NC(C)c2cnn(-c3ccccc3C)c2C)cc(OC)c1OC (stereo not shown)	-24.8
COc1ccccc1N(C(=O)Cn1nnc(-c2ccc(C)o2)n1)C(C(=O)NC1CCCC1)c1ccncc1 (stereo not shown)	19.4
